Results reported in article PMC4336329 (PLoS ONE, 2015).
Out of some 310,000 compounds screened, about 2,200 (0.71%) showed an effect of 50% or more. Effects have a minus sign here. Some of the results follow.

target: human ether-à-go-go-related gene (hERG) potassium channel (human, UniProt Q12809); test: primary screen, population patch clamp on CHO cells stably expressing hERG
Sequence (Q12809 whole entry, looked up): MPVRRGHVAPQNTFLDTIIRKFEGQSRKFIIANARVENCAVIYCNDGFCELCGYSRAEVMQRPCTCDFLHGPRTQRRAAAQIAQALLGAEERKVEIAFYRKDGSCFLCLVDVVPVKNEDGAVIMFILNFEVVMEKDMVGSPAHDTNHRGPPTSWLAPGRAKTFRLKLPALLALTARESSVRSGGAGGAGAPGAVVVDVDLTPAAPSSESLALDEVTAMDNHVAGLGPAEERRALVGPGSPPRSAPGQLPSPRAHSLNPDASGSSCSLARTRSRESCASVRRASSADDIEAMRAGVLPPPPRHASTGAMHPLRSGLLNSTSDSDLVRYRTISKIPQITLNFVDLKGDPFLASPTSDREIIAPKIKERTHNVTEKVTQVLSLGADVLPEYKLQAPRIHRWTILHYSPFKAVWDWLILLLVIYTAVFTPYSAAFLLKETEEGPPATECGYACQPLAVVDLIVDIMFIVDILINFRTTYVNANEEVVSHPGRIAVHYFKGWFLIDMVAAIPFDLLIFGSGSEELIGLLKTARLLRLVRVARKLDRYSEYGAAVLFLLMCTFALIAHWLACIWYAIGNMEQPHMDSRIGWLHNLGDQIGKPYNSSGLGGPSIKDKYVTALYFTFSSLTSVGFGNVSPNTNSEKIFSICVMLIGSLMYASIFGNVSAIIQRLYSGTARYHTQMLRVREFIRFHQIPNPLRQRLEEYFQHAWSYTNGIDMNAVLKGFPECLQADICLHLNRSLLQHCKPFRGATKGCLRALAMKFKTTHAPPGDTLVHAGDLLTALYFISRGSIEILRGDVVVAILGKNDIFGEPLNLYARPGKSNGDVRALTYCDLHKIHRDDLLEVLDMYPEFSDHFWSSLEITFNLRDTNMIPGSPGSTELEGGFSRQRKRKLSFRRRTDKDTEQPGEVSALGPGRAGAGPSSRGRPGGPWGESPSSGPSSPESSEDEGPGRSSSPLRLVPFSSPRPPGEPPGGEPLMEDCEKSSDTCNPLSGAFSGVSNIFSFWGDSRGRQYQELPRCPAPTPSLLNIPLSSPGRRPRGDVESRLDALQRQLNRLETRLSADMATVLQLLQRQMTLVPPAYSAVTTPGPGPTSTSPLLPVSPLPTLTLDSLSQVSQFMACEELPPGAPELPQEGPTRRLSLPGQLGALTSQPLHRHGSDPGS

| SMILES | hERG current change (%, negative = inhibition) at 1uM |
| --- | --- |
| O=C(CCN1C(=O)/C(=C/c2ccccc2F)SC1=S)NCCc1ccc(O)cc1 | 11.7% |
| CC1=C(C(=O)OCC(C)C)C(c2ccccc2Cl)NC(=O)N1C (centres unmarked) | 9.59% |
| Cc1cccc(N=C2SC(C)CN2C(=O)CN2C(=O)NC3(CCCC3)C2=O)c1 (centres unmarked) | 0.0383% |
| O=C1Nc2ccc(Cl)cc2/C1=C/C1CC=CCC1 (centres unmarked) | 7.83% |
| COc1cc(S(=O)(=O)Nc2cccnc2)ccc1F | 2.55% |
| Cc1ccc(C)c(NC(CC(=O)c2ccccc2)C(=O)OCC(=O)c2cccs2)c1 (centres unmarked) | 8.86% |
| Cc1cc(C(=O)Nc2c(F)cc(F)cc2Br)cs1 | 15.2% |
| O=C(CSc1nnc2c3ccccc3c3ccccc3c2n1)Nc1ccccc1 | 6.56% |
| Nc1ccc(N2CCN(c3cccc(Cl)c3)CC2)cc1 | 1.01% |
| Cc1cccc(C)c1NC(=O)NCc1ccco1 | 13.6% |
| O=C(O)COn1c(-c2ccccc2)nc2ccc(Cl)cc21 | -0.951% |
| COc1ccc(S(=O)(=O)N2CCN(C)CC2)cc1NC(=O)c1ccccc1C | 0.757% |
| CCOC(=O)c1c(NC(=O)c2ccccc2)sc2c1CCc1ccccc1-2 | 9.87% |
| Cn1c(CSCc2ccc(Cl)cc2)nnc1SCC(=O)Nc1nccs1 | 4.23% |
| CC(C)c1ccc(NC2CCCN(C(=O)c3cccc4nccnc34)C2)cc1 (centres unmarked) | 5.47% |
| O=C(COc1cccc2cccnc12)N/N=C1\SCC(=O)N1CCc1ccccc1 | -0.0657% |
| Cc1ccc(C)c(OCc2cc(C(=O)N3CCN(c4ccccc4)CC3)no2)c1 | 0.205% |
| COC(=O)CCC(=O)NS(=O)(=O)c1ccc(N=NN2CCOCC2)cc1 | 5.65% |
| COc1ccc(S(=O)(=O)NCC(c2ccc(F)cc2)N2CCN(C)CC2)cc1 (centres unmarked) | -3.98% |
| Brc1ccc(C2=Nc3cccc4cccc(c34)N2)o1 | 11.3% |
| COc1ccc(S(=O)(=O)N2CCCCCC2)cc1C(=O)OCC(=O)NC(N)=O | 8.64% |
| Cc1cc(C(F)(F)F)nc(SCC(=O)NC2CCCCC2)n1 | 5.94% |

| SMILES | hERG current change (%, negative = inhibition) at 1uM |
| --- | --- |
| Cc1ccc(F)cc1NC(=O)COC(=O)c1ccc2ncsc2c1 | 10.2% |
| Cc1nn(C(C)C(=O)N/N=C/c2ccc(N(C)C)cc2)c(C)c1[N+](=O)[O-] (centres unmarked) | 3.11% |
| CCOC(=O)c1sc(NC(=O)Cc2c(F)cccc2Cl)nc1C | 4.19% |
| Cc1ccc(C(=O)N/N=C/C2=Cc3ccccc3OC2C)cc1 (centres unmarked) | -3.19% |
| Cc1cc(-n2c(C)cc(C(=O)CCl)c2C)no1 | 8.36% |
| Cc1ccc(NC(=O)N2CCCC2C(=O)Nc2c(C)cc(C)cc2C)cc1 (centres unmarked) | 5.35% |
| O=C(C1CCN(S(=O)(=O)c2ccc(Cl)cc2)CC1)N1CCCCCCC1 | 7.38% |
| CSC1=N/C(=C\c2ccc(C)o2)C(=O)S1 | 1.62% |
| O=C1CC(NC2CCN(C(=O)c3cccc(F)c3)CC2)C(=O)N1 (centres unmarked) | 15.1% |
| O=C(c1ccc(NC(=O)C2(c3ccccc3)CCOCC2)cc1)N1CCOCC1 | 10.3% |
| Cc1ccc(C(=O)CSc2nnc(-c3cccnc3)n2N)cc1 | -0.97% |
| C=CCn1c(N)c(C(=O)N2CCOCC2)sc1=S | 11.9% |
| COc1ccc(CN2C(=O)c3cccnc3C2=O)cc1S(=O)(=O)N1CCCCC1C (centres unmarked) | 10.9% |
| COc1ccc(CCn2c(NCCCN3CCOCC3)nc3c2c(=O)[nH]c(=O)n3C)cc1 | 7.24% |
| Cc1cccc(C(=O)NCCN(C)C)c1.Cl | -0.633% |
| O=C(NC(Cc1ccccc1)C(=O)O)OCc1ccccc1 (centres unmarked) | 8.76% |
| CCOC(=O)N1CCN(S(=O)(=O)c2cc([N+](=O)[O-])c(C)cc2C)CC1 | 1.12% |
| N#CC1=C(N)OC2=C(CC/C2=C\c2ccccc2)C1c1ccccc1 (centres unmarked) | 12% |
| Cc1ccnc(NC(=O)CCCOc2cc(=O)n(C)c3ccccc23)c1 | 11.2% |
| C=CCn1c(CNS(=O)(=O)c2ccc(Br)cc2)nnc1SC | 2.53% |
| Cc1nc2cc(NC(=O)Nc3cccc([N+](=O)[O-])c3)ccc2n1C | 12.8% |
| COc1ccc(-n2c(O)c(Cc3ccccc3)c(=O)n3nc(-c4ccccc4)c(=O)cc23)cc1 | 6.81% |
